Sequences with one replicate were seen in a single cluster, so their values are uncertain.
System: ATP
Test: switch fluorescence ratio, 500 uM ATP over buffer (Cy3 cluster intensity, sum of 5 cycles each) (fold (ratio)); higher = stronger signal-on switching upon ATP binding; sequences stand for … in TCGTCGGCAGCGTCAGATGTGTATAAGAGACAGTTTTTTTTTTTTTTTTTTTTTTTTT…TC
Details: aptamer strand: ATP DNA aptamer (quencher-CACCTGGGGGAGTATTGCGGAGGAAGG + anchor), 100 nM annealed; ATP concentration: 500 uM; one replicate
Procedure, shortened: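 Values give the fluorescence ratio for each switch-domain sequence, averaged from per-cluster ratios of summed target-cycle to summed buffer-cycle Cy3 intensity. The Cy3-labelled switching-strand clusters sat on a modified Illumina MiSeq flow-cell, were annealed to 100 nM quencher-labelled ATP aptamer, and were imaged in selection buffer, then after 15 min with 500 uM ATP at 22 °C. Five cycles ran with NaOH stripping and re-annealing between them, and clusters outside 100-1000 RFU were excluded.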
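Also: ATP exposure 15 min at 22 °C before imaging.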

| Sequence | switch fluorescence ratio |
| --- | --- |
| ACTCCAACG | 1.34 |
| CTCATTCCAA | 1.07 |
| GACTGGGTGC | 1.15 |
| CAGGAAGGG | 1.05 |
| ACTCGCAGCA | 1.57 |
| TAGCTGAGCC | 1.02 |
| TTGAGCATCG | 1.02 |
| CCCGTTACTT | 1.16 |
| ATCGCGGCGA | 1 |
| ATGCGCGTGT | 1.02 |
| TTCTCGCTGT | 1.08 |
| GTCGTGACGG | 1.01 |
| AATTGCTGGT | 1.02 |
| TTCCGTTTT | 1.02 |
| GATTAGGCAA | 1.04 |
| GAACAGAGGC | 1.02 |
| AGCAAATAGG | 1.11 |
| TGGCAGGGGC | 1.04 |
| TCGTAGGTCT | 1.03 |
| TGCATGGGAT | 0.985 |
| ATGGTATCTT | 0.983 |
| TGGGGGCAAT | 0.999 |
| TTGTAAGCCT | 1.08 |
| CTCATATTAA | 1.02 |
| CATACAAGGA | 0.99 |

| Sequence | switch fluorescence ratio |
| --- | --- |
| CAAATCCGTA | 0.975 |
| CTCTCGACGA | 1.06 |
| TGTGTGCATA | 0.975 |
| CACGGCGGTT | 1.01 |
| TATCTTCGTG | 0.984 |
| AGGGGATGAT | 0.999 |
| GAGGGTGAGG | 0.989 |
| ACTACCGCCT | 1.24 |
| AAATATAGTA | 0.971 |
| CCATTTCAGA | 1.02 |
| TCCACGGAGA | 1.1 |
| AAGCTTGAAC | 1.06 |
| AAGAGAAGGC | 0.994 |
| ACATTTAAGA | 1.04 |
| GGATTCTTCA | 1.01 |
| ATCGTTTTAC | 1.06 |
| TACCTAGGAG | 1.05 |
| ATTCTCCGGT | 1.13 |
| AGTCAATGCG | 1.06 |
| TCAGTGCCA | 1.03 |
| GGGATATTCG | 1.13 |
| CAATCGCGCG | 1.06 |
| TCGTAGTCCT | 1.05 |
| CGAAAATATG | 1.03 |
| TCATAAACAA | 1.03 |

| Sequence | switch fluorescence ratio |
| --- | --- |
| ATTTGGACGC | 1.17 |
| GAGTTGCCTT | 0.949 |
| GACCCAGAG | 1 |
| ATAAGATATA | 1.07 |
| CCATCAACCG | 1.05 |
| ACAGGGCTT | 1.02 |
| CCCCCCGGTG | 2.34 |
| ATGTACGCAT | 1.12 |
| AATGTTTAGG | 0.992 |
| GATGTAGTT | 1.01 |
| GACAAGTACT | 1.21 |
| AAGGAAGCAG | 1 |
| GCGGTTTGGC | 1.06 |
| AAAATTCCAC | 1.05 |
| TCAAAACAAG | 0.986 |
| AGTACGTGGT | 1.01 |
| CAGTCAGCTT | 0.997 |
| TATGGGGTAA | 0.977 |
| GCAGAGCTGG | 1.01 |
| CAATTGGAAG | 0.969 |
| GGTTGATGCT | 0.952 |
| CCAGAGGCCT | 0.998 |
| GGCGTGGTAA | 0.977 |
| GGCTCTACGC | 1.08 |
| AATAATGGAT | 1.02 |

| Sequence | switch fluorescence ratio |
| --- | --- |
| AGATTTAGT | 0.947 |
| TGACGTGGTT | 0.977 |
| ACCCGGTGTT | 1.85 |
| GAACACTTTG | 0.991 |
| ATAGACCTAC | 1.26 |
| GAGGTCGGGG | 1.03 |
| GCCGTTAAGC | 0.996 |
| CAAGGCCCGA | 1.06 |
| GTTTTTGTAT | 1.02 |
| GCTGGTACGT | 0.956 |
| GCATAGCTGT | 0.961 |
| TCTTCAGGTA | 0.966 |
| AGCATGCAAC | 1.07 |
| ACGGGTAACA | 1.01 |
| GCTTTGTTGC | 1.02 |
| CGGCCGCTT | 1.27 |
| TAACCCCGAC | 1 |
| AATGGCGTGG | 1.02 |
| TGCGATTGGA | 0.993 |
| GTATATGTGT | 0.983 |
| TAGGTGTCAG | 1.04 |
| CATGAGGTAA | 1.08 |
| GGTATTTTT | 0.998 |
| CTTGAAGCTG | 0.945 |
| ATCGGCCGTG | 0.975 |

| Sequence | switch fluorescence ratio |
| --- | --- |
| GCCGGTAAAT | 0.976 |
| TGGCCATATT | 1.04 |
| TATTGGTATC | 1.01 |
| ATCTTGCCCT | 0.981 |
| CGCATGGCTG | 1.06 |
| TCTATACATA | 1.07 |
| ACAATGATGT | 0.96 |
| TCGCAGGACA | 1.28 |
| CGGAGGCGAA | 1.3 |
| ACCGAGTATC | 1.04 |
| AGCTGTTCGA | 1.01 |
| TTTGAATAGT | 0.995 |
| CGGCTGCTGG | 1.04 |
| TTCCTATTAA | 1 |
| TGCAACTTGA | 0.971 |
| GCACTTTGTT | 1 |
| TTACGTTAT | 1.21 |
| ACACGTAGCT | 1.2 |
| CAAATCACAA | 0.973 |
| GCGTCGGCCC | 1 |
| TACCTGTAC | 1.33 |
| AGGAACACTT | 1 |
| TGGAGGCGGG | 1.05 |
| TCATCAGAGG | 0.987 |
| GTCGGGTCCG | 1.01 |

| Sequence | switch fluorescence ratio |
| --- | --- |
| GTCAGGTGAA | 1.54 |
| ACGCCAGGGG | 2.96 |
| GTGCAGGCGT | 0.992 |
| GTCGATAAAA | 1 |
| CACGTAGGAC | 1.19 |
| GCTTAAAAGC | 1.15 |
| CGACACGACA | 1.2 |
| ATGCTTCGTA | 1.06 |
| CCTTACCATC | 1.19 |
| CCCTCTGTCC | 1.12 |
| CCGTATAGTA | 1.08 |
| CGCCGGTATG | 1.01 |
| GGACAGAGAC | 1.07 |
| TTCTAACTCC | 2.08 |
| AAGTGCGGCA | 1.06 |
| GATTGTGGGA | 1.04 |
| GTAGAGCAAA | 1.06 |
| GTAATGAATC | 0.963 |
| CCTAAAACAC | 1.15 |
| ACCAAGGGAC | 1.08 |
| ACATGGTGTC | 1.02 |
| TTTCGGGTTA | 0.998 |
| TTACCTATAC | 1.34 |
| GACAGCTCAT | 1.01 |
| TTGAGCGGGA | 0.992 |

| Sequence | switch fluorescence ratio |
| --- | --- |
| ACAGGTCTCA | 1.02 |
| AATGGCTTCC | 2.18 |
| GTTTTACGGT | 1.01 |
| TCAGGAGATG | 1 |
| CCACTTTTGA | 0.977 |
| ACGATCGGTA | 1 |
| CCTATTTTA | 0.996 |
| GGCGACCGGA | 1.01 |
| AACCAGAACA | 0.973 |
| CGGAGTGCCT | 1.01 |
| TTGAGCAAAT | 1.22 |
| TCAATGTTAT | 1.01 |
| CCAAGCATGA | 2.16 |
| TCGTGTGCGC | 1.01 |
| ACTTTCTGTT | 0.982 |
| TCATTCCTAG | 1.02 |
| TGGCCGGAGC | 1.1 |
| TAAGACAGCG | 1.15 |
| ATGTTGTCAC | 1.01 |
| CTGAATTGTT | 1.01 |
| ATTGGCTGCG | 0.98 |
| CGTCATCAAT | 1.49 |
| TGACACGCTG | 1.1 |
| GGAGGGCGCC | 0.986 |
| CTTTCGTATT | 1.02 |

| Sequence | switch fluorescence ratio |
| --- | --- |
| AATTTACGCT | 1.05 |
| GAATACAACA | 1.01 |
| GTGAGGGCAC | 1.01 |
| AAACACGGAT | 1.04 |
| GGGCGTACTT | 0.995 |
| AGCGGGCTAC | 1.05 |
| AGCTAAATGT | 0.973 |
| TTCTGGGGG | 0.951 |
| TACGAAATGA | 1.99 |
| TATCGTTGAG | 1.03 |
| CTGAGTGCTA | 1.16 |
| CCACCGTACG | 1.93 |
| ACCGGTGGGA | 1.01 |
| GGCTTTGGTT | 1 |
| ATGGTGAAGA | 0.947 |
| CGCCGAGCCC | 1.18 |
| CTTCAGTCTA | 1.07 |
| AGTTAATCTG | 0.94 |
| AAATCATGCG | 0.967 |
| AACGTACCGC | 1.71 |
| AATTGAATG | 0.988 |
| AATCTTGAAC | 1.01 |
| TTGGATAGCA | 1.02 |
| ATATCGTGCG | 1 |
| CGTAGTGGTA | 1.06 |
